# Screen size: about 310,000 compounds; about 11,000 (3.5%) were called active. Inconclusive results, whose numbers are uncertain, are shown with a selection of clear calls. Calls come from the whole dose curve; as a rule, active = well fitted inhibition curve with a large enough effect; inconclusive = small, poorly fitted or top-dose-only effect, or effect the other way; inactive = flat fitted curve, though single readings scatter. Potencies of inconclusive entries are left out as doubtful fits.
# Assay: VP16 counterscreen qHTS for inhibitors of ROR gamma transcriptional activity;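 note: Gal4-VP16 expression switched on by copper sulfate through the metallothionein promoter; nearly all actives have a fitted effect of over 50% in size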
# Settings: Drosophila S2 Gal4-VP16 UAS-luciferase, luminescence, 20 h; series mostly up to 53.6 µM
# Potency is the fitted concentration of half-maximal effect; tags give direction and shape of the fitted curve.
row,Structure (SMILES),Potency
1,N#C/C(=C(/O)c1ccc2c(c1)OCO2)c1nc2cc(C(F)(F)F)ccc2s1,"inconclusive [inhibitor, single point]"
2,COc1cc(NC(=S)N2CCN(c3ccccn3)CC2)c(OC)cc1Cl,"inconclusive [inhibitor, single point]"
3,S=C(Nc1ccc(Br)cc1Cl)NC1CCN(Cc2ccccc2)CC1,"inconclusive [inhibitor, single point]"
4,O=C(/C=C/c1ccc(Br)cc1)NC(=S)NNC(=O)c1ccco1,"inconclusive [inhibitor, single point]"
5,CS(=O)(=O)c1ccccc1C(=O)Nc1nc2ccccc2[nH]1,inactive
6,CCOC(=O)C(C)N1C(=O)S/C(=C/c2cc(C)n(-c3ccncc3)c2C)C1=O (stereo not drawn),"inconclusive [inhibitor, single point]"
7,CCOc1cc(CNCCN2CCOCC2)ccc1OCc1ccccc1Cl,"inconclusive [inhibitor, single point]"
8,COc1ccc(CNC(=O)CCn2c(=O)[nH]c3ccccc3c2=O)cc1,inactive
9,Nc1ccc2nc(-c3ccc(Cl)cc3)[nH]c2c1,"inconclusive [inhibitor, partial curve, poor fit]"
10,Fc1ccc(CNC(=S)Nc2ccccc2F)cc1,"inconclusive [inhibitor, single point]"
11,CCCCC(C)(O)C/C=C/[C@H]1[C@H](O)CC(=O)[C@@H]1CCCCCCC(=O)OC (stereo partly drawn),"inconclusive [inhibitor, single point]"
12,O=C(CN1C(=O)C2CC=CCC2C1=O)Nc1nc2ccccc2s1 (stereo not drawn),inactive
13,CCC(=O)N(CCc1ccccc1)Cc1cc2cc(C)ccc2[nH]c1=O,inactive
14,COc1cc2[nH]c(=S)n(Cc3ccco3)c(=O)c2cc1OC,"inconclusive [inhibitor, single point]"
15,CCCOC(=O)C(C)n1cnc2scc(-c3ccc(C)cc3)c2c1=O (stereo not drawn),inactive
16,Cc1ccc(NC(=O)CSc2nnc(N)s2)c([N+](=O)[O-])c1,"inconclusive [activator, single point]"
17,CCOc1ccc(OCC)c(NC(=O)CCCN2C(=S)NC(C)(C)CC2C)c1 (stereo not drawn),active: 6.31 µM
18,COc1ccc(C(=O)NC(=S)N2CCNC(=O)C2)cc1Br,"inconclusive [inhibitor, single point]"
19,CC(=O)Nc1ccc2nc(-c3ccccc3)cn2c1,"inconclusive [inhibitor, single point]"
20,COc1cc(/C=C2\COC/C(=C\c3cc(OC)c(OC)c(OC)c3)C2=O)cc(OC)c1OC,active: 5.01 µM
21,CCCCCCCC(=O)OCCOC(=O)CCCCCCC,inactive
22,c1ccc(CNc2ccc(CNc3ncn[nH]3)cc2)cc1,inactive
23,Cc1ccc(NC(=S)NNC(=S)NC2CCCCC2)cc1,"inconclusive [inhibitor, single point]"
24,CC(CNC(=O)C(C)(C)C)NC(=O)C(C)(C)C (stereo not drawn),inactive

row,Structure (SMILES),Potency
1,CCOC(=O)c1cc2sccc2n1CC(=O)OC(C)C,inactive
2,Cc1nc2ccccc2c2oc(C(=O)NCc3ccc4c(c3)OCO4)cc12,"inconclusive [inhibitor, single point]"
3,CCCCCOc1ccc(CSCCNC(=S)Nc2ccccc2)cc1,active: 3.16 µM
4,Cc1cc(C(=O)Cn2cc(C(F)(F)F)ccc2=O)c(C)n1-c1ccccc1,"inconclusive [inhibitor, single point]"
5,Cc1ccccc1C(OCC(O)CN1CCC(C(N)=O)CC1)c1ccccc1 (stereo not drawn),inactive
6,Cc1cc(C)nc(NC(=NCCc2c[nH]c3ccccc23)NC(=O)C(C)(C)C)n1,"inconclusive [inhibitor, single point]"
7,CC(=O)[C@@H]1[C@@H](C(=O)c2ccc(C)cc2)[C@]2(C(=O)Nc3ccccc32)[C@H]2C=Cc3cc(F)ccc3N12,"inconclusive [activator, single point]"
8,CC(=O)c1cccc(NC(=O)c2ccc3ccccc3c2)c1,"inconclusive [inhibitor, single point]"
9,Cc1ccccc1OCC(O)CN1CCN(CC(O)COc2ccccc2C)C(C)C1 (stereo not drawn),inactive
10,COc1cc(NC(=S)NCCc2ccccc2)c(OC)cc1NC(=O)CC(C)C,"inconclusive [inhibitor, partial curve, poor fit]"
11,CCOC(=O)c1cc(-c2ccco2)nc2c1c(C)nn2CCC#N,"inconclusive [activator, full curve, poor fit]"
12,C=CCn1c(=O)c2c(nc3n2CC(C)CN3Cc2ccccc2)n(C)c1=O (stereo not drawn),inactive
13,O=C(Nc1nc2ccccc2[nH]1)c1cccs1,active: 12.6 µM
14,COc1ccc(CN(C(=O)c2cnccn2)C(C(=O)Nc2ccc(F)cc2)c2ccccc2)cc1 (stereo not drawn),"inconclusive [activator, partial curve]"
15,Cc1cc(C)c(S(=O)(=O)ON2C(=O)c3ccccc3C2=O)cc1C,active: 15.8 µM
16,O=C(NCc1ccco1)c1cc2n(n1)C(C(F)(F)F)CC(c1ccc(Br)cc1)N2 (stereo not drawn),"inconclusive [inhibitor, single point]"
17,CCOc1ccc2oc(C(=O)NC3CCN(Cc4ccccc4)CC3)c(C)c2c1,inactive
18,CCCNC(=S)Nc1ccc(Cl)cc1C,"inconclusive [inhibitor, single point]"
19,COc1ccc2c(c1)c(CC(=O)Nc1cccc(S(N)(=O)=O)c1)c(C)n2C(=O)c1ccc(Cl)cc1,inactive
20,CCOC(=O)CC(=O)CSc1nc2ccc(OC)cc2cc1C,"inconclusive [activator, full curve]"
21,Cc1ccc(CSc2nc3ccncc3n2CC(=O)Nc2cc(C)cc(C)c2)cc1,"inconclusive [inhibitor, single point]"
22,Cc1cccc(Nc2nc(-c3ccc(O)c(O)c3)cs2)n1,active: 5.62 µM
23,COCCN(C(=S)Nc1cc(C)cc(C)c1)C(C)c1cccs1 (stereo not drawn),active: 22.4 µM
24,Cn1c(NC(=S)Nc2ccccc2)nc2ccccc21,active: 1 µM

# Source: PubChem BioAssay AID2546 (National Center for Advancing Translational Sciences (NCATS), 2010)
